# From PubChem BioAssay AID1508623 (National Center for Advancing Translational Sciences (NCATS), 2021)
# Where “and” joins values, the source holds several entries; their conditions need not be identical. Equal entries are not always repeated. Among all 48,000 compounds or so, about 450 (0.94%) were called active. The shares of active, inactive and inconclusive entries below differ from those in the screen. Calls follow the shape of the dose curve; as a rule, active = well fitted inhibition curve with a large enough effect; inconclusive = small, poorly fitted or top-dose-only effect; inactive = no such curve, though single readings can be large or run the other way. Where the call is inconclusive, the potency comes from a doubtful curve fit.
# Assay: Primary qHTS for Identification of Small Molecule Inhibitors of Huntingtin Promoter Activity; also: nearly all actives have a fitted effect of over 50% in size
# Conditions: HEK293 HTT promoter firefly luciferase reporter (activity 0% = vehicle and -100% = no light), 24 h; series mostly up to 57.5 µM
# How it was run: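 HEK293 cells carrying firefly luciferase reporters were seeded at 2,500 per well in Opti-MEM and cultured for 24 h. They were then treated with compounds at up to 57.5 uM final for 24 h at 37 degrees C before Dual-Glo luminescence readout.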
# Potency is read from the fitted curve at half-maximal effect; tags tell the direction and shape of the fitted curve.
row,SMILES,Potency
1,COc1cccc(CNCCSc2nnnn2C)c1OCc1ccc(Cl)cc1Cl,"inconclusive: 35.5 µM [inhibitor, single point]"
2,COc1ccccc1CNC(=O)Cn1c(=O)oc2cc(S(=O)(=O)N3CCC(C)CC3)ccc21,"inconclusive: 15.8 µM [inhibitor, partial curve, poor fit]"
3,CC(CNC(=O)Cn1ccc2cc(S(=O)(=O)N3CCCCC3)ccc21)c1ccccc1 (configuration not stated),"inconclusive: 17.8 µM [inhibitor, single point]"
4,Cc1cc2nn(-c3ccc(F)cc3)nc2cc1NC(=O)c1ccc(OC(C)C)cc1,inactive
5,CCOc1ccc(CCNC(=O)C2CCN(C(=O)N3CC(CC)Oc4ccc(C)cc43)CC2)cc1 (configuration not stated),"inconclusive: 28.2 µM [inhibitor, single point]"
6,Cc1ccc(NC(=O)CSc2nc3ccc(NC(=O)c4cccs4)cc3s2)c(C)c1,"inconclusive: 39.8 µM [inhibitor, single point]"
7,COc1ccccc1C(=O)NCCSc1c(C)[nH]c2ccccc12,"inconclusive: 22.4 µM [inhibitor, partial curve, poor fit]"
8,COc1cccc(NC(=O)CSc2nc(=O)n(Cc3ccccn3)c3c2CCC3)c1,"inconclusive: 20 µM [inhibitor, single point]"
9,COc1ccc(CCNC(=O)c2ccc3c(c2)N=C(C)c2cc(C)ccc2S3)cc1OC,"inconclusive: 28.2 µM [inhibitor, partial curve, poor fit]"
10,COc1ccc2cc([S+]([O-])Cc3ncc(C)c(OC)c3C)nc2c1,inactive
11,Cc1ncc(CO)c2c1Oc1nc(-c3ccccc3)nc(SCC(=O)N3CCCCC3)c1C2,inactive
12,O=C(NCc1ccccc1)[C@H](Cc1ccccc1)NC(=O)[C@@H]1O[C@@H]1C(=O)NCCc1ccc(O)cc1,inactive
13,CS(=O)(=O)N1CCc2cc(C(=O)Nc3ccc(Cl)c(C(F)(F)F)c3)ccc21,"inconclusive: 28.2 µM [inhibitor, partial curve, poor fit]"
14,COc1ccc(NC(=O)Cn2c(=O)n(-c3cccc(C)c3)c(=O)c3c2c2cc(C)ccc2n3C)cc1Cl,inactive
15,Cc1ccc(NC(=O)COc2ccc(-c3nn(C)c(=O)c4ccccc34)cc2)cc1,"inconclusive: 39.8 µM [inhibitor, single point]"
16,Cc1nc(-c2ccc(OCC(C)C)c(C#N)c2)sc1C(=O)O,"inconclusive: 10.9 µM [inhibitor, full curve]"
17,CN(C)c1ccc(CNC(=O)C2CCCN(S(=O)(=O)c3ccc4c(ccn4C)c3)C2)cc1 (configuration not stated),"inconclusive: 14.1 µM [inhibitor, partial curve, poor fit]"
18,COc1ccc(C2N=C(N)Nc3nc4ccccc4n32)c(OC)c1OC (configuration not stated),inactive
19,CCNC(=O)CCCC=CC[C@@H]1[C@H](C=CC(O)CCc2ccccc2)[C@@H](O)C[C@@H]1O (some centres not stated),inactive

row,SMILES,Potency
1,CCCCNC(=O)Nc1ccc2c(c1)N(C)C(=O)c1ccccc1S2,"inconclusive: 44.7 µM [inhibitor, partial curve, poor fit]"
2,COc1ccccc1NC(=O)c1c(C)cc(C)nc1SCC(=O)Nc1ccc(C)cc1,"inconclusive: 15.8 µM [inhibitor, partial curve, poor fit]"
3,CC(=O)Nc1ccc(S(=O)(=O)NCC2CCC(C(=O)NCc3ccccc3)CC2)cc1 (configuration not stated),inactive
4,Cc1ccc2c(c1)c(=O)c1ccccc1n2CCCC(=O)Nc1ccc(Cl)c(Cl)c1,"inconclusive: 28.2 µM [inhibitor, partial curve, poor fit]"
5,COc1cccc(NC(=O)CN2C(=O)CC(c3ccco3)Sc3ccccc32)c1 (configuration not stated),inactive
6,Cc1cccc(C)c1NC(=O)C(=O)NCC(c1cccnc1)N1CCc2ccccc21 (configuration not stated),"inconclusive: 28.2 µM [inhibitor, single point]"
7,O=C(C1CCC(Cn2c(=O)c3sccc3n(Cc3ccccc3F)c2=O)CC1)N1CCOCC1 (configuration not stated),"inconclusive: 39.8 µM [inhibitor, single point]"
8,CN(C)c1ccc(C(=C2C=CC(=[N+](C)C)C=C2)c2ccc(N(C)C)cc2)cc1,"inconclusive: 3.16 µM [inhibitor, partial curve, poor fit] and inconclusive: 1.22 µM [inhibitor, full curve]"
9,CCOC(=O)c1c(NC(=O)c2ccc(S(=O)(=O)N(CC(C)C)CC(C)C)cc2)sc2c1CCN(CC)C2,"inconclusive: 31.6 µM [inhibitor, single point]"
10,COc1ccccc1N1CCN(C(=O)c2ccc3c(c2)N(Cc2cc(C)ccc2C)C(=O)c2ccccc2S3(=O)=O)CC1,"inconclusive: 35.5 µM [inhibitor, partial curve, poor fit]"
11,COc1cc2c(=O)c(S(=O)(=O)c3ccc(C(C)C)cc3)cn(Cc3ccccc3C)c2cc1OC,"inconclusive: 25.1 µM [inhibitor, single point]"
12,CCOC(=O)c1ccc(NS(=O)(=O)c2ccc3c(c2)CCN3C(=O)CC)cc1,"inconclusive: 11.2 µM [inhibitor, partial curve]"
13,CCOC(=O)c1cc(-c2ccccc2)n(CCC(=O)NCCc2ccc(C)cc2)c1C,"inconclusive: 39.8 µM [inhibitor, single point]"
14,CCOC(=O)c1cccc(NC(=O)c2cc(C)nc3c2c(C)nn3-c2ccc(C)cc2)c1,"inconclusive: 35.5 µM [inhibitor, partial curve]"
15,CCc1cccc(C)c1NC(=O)CSc1n[nH]c(-c2ccccc2)n1,"inconclusive: 31.6 µM [inhibitor, single point]"
16,Cc1nc(Nc2ncc(C(=O)Nc3c(C)cccc3Cl)s2)cc(N2CCN(CCO)CC2)n1,"inconclusive: 7.94 µM [inhibitor, partial curve]"
17,Cc1ccccc1OCCSc1nnc(-c2cccs2)o1,"inconclusive: 4.47 µM [inhibitor, single point]"
18,CCC(C(=O)NCCC(C)C)N(C(=O)Cn1nnc(-c2ccc(C)cc2)n1)c1cccc(O)c1 (configuration not stated),"inconclusive: 39.8 µM [inhibitor, partial curve, poor fit]"
